Reference: the supplement of paper PMC11417369
This is one part of the list.

Test system: PF3D7_0420300 AP2 domain 1 (GST-tagged)
Assay: gcPBM binding intensity (ln(normalized median fluorescence intensity)); higher = stronger DNA binding
Method in brief: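 Binding intensity is the highest Masliner-normalised natural-log median intensity over replicate spots in either probe orientation. To obtain it, GST-tagged P. falciparum DNA-binding domains made in E. coli were incubated for 1 h on an Agilent 4 × 180k array of primer-extended double-stranded 36-bp intergenic genomic probes plus negative controls. Detection used Alexa488 anti-GST antibody with scanning at 488 nm.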

Sequence	gcPBM binding intensity (ln)
AATTAAAAAGAAAAAAGTACATATTTTTTTAAAAAA [XGTACX_site7384]	9.08
ATATATATATATATGTGTACTAATAAGGTTAAATAA [XGTACX_site1535]	9.3
AAATATATATTTCTTAGTACATATGTATTTTTTTTT [XGTACX_site938]	9.26
TGTATGTATAATTGAGTGCACAGAAAAAAAAAAGAA	9.51
AGAAAAAAAAAAAAAAAACACACGGTACATTCAAAG [CACACA_site2]	9.64
TAATTTTCATATTTCTGTACATATATTATAAATATA [XGTACX_site3480]	9.19
TAATATATATATATTACACACACGTATTATTAAATA [CACACA_site432]	9.59
ATTTACATTATATTGAATATGCCATATTATATTATT [CACACA_negctrl_site811]	9.39
TCTAACATATTTTTAATACACACTTAAAAAAGTACT [CACACA_site1366]	9.14
AATGCTTTTCATCAAGTGCAATATGTTAATACAAAC [GTGCAC_site9619]	9.08
TCTATATCAACCAGTTGTACTGAATTTACTATATTT [XGTACX_site4205]	9.31
TATAAAAGTAGACACACACACATATAAATATAAATA [CACACA_site6567]	10.1
GTAGACTGAAACCACACACACATATATAAATATATT [CACACA_site6433]	9.92
AAAAAAAAAAATGGTTGTACTTTTTTTATTTGGTGC [XGTACX_site4498]	8.98
ATATTATATTGGATGTTGCACTTAACAAAAGGATAT [GTGCAC_site9478]	9.23
ATAGACTTTTGTTTTGTTTTATTTTATTGTATTGTA [CACACA_negctrl_site618]	9.52
ACCATACAGAATAATGCATGTTCCTTTTTATGAATA [TGCATGCA_site995]	9.17
AAAAAAATAAAGGATATACACACTAATTATATATAT [CACACA_site2812]	9.64
TATACTTGTAAATGCACACATAAGATGCGACTAATG [CACACA_site2118]	9.25
AGATTATAAAATTCTACACACATATATACCTATATA [CACACA_site5848]	9.54
AAAATAATTGTTTACACACCCATTTGTAATTTTACC [CACACA_site3614]	9.57
CTGTGTTTTGGTTGTACACACGCTACATTCTATATT [CACACA_site2698]	9.69
AAAAAATATTTATGTTCACACATTTTATATATGATA [CACACA_site4821]	9.2

Sequence	gcPBM binding intensity (ln)
TTTTTTTTTTGATGAGCACACATGTTTTTTCTTAGA [CACACA_site3171]	9.17
AAATATTTTTAAAGAAGTACTTTTTAAAAATAATCT [XGTACX_site4897]	9.01
AAGATACACCTTTTTAGTACTTACATTTTTTTTATT [XGTACX_site1373]	9.55
TCTTTGTTTTTTTTTTTTAAACAAAATCATCAAAGG [XGTACX_negctrl_site192]	8.69
GCGTATACTTGTAACGGTACACAGGAAATTATAGAA [XGTACX_site507]	9.19
AATAAATATATATACACACCCATATATATATATATA [CACACA_site2595]	9.43
TACACTTTTTTTTGTACACACTAAAAAGATTAACAA [CACACA_site6037]	9.07
TTAATGAAATATTATACACACAAAAAAATAATTTTA [CACACA_site4231]	9.45
TAATGTTGTTTCTGAGGTACACAATTTTTTTTATTT [XGTACX_site8035]	9.41
TATATATATGGACACACACACACCAAAGCGTAGCGC [CACACA_site4209]	9.92
AGATAAAATATATATGCACACACATATATATTTCAT [CACACA_site9183]	9.53
ATAATTATTTAATATATATATATTATTTCGAATGTT [GTGCAC_negctrl_site688]	9.29
TAATTATTTAAAAAGAGTACATTTTTTTTTTTTTTT [XGTACX_site1060]	8.9
ATTCTATATAAATATACACACATATATAAAATACAT [CACACA_site2293]	9.54
TTAATAATTAATATATGTACTGATAAATAACATATA [XGTACX_site3966]	9.07
ACATATCTATCGTTTTTAATTGTATATTATTATAAC [TGCATGCA_negctrl_site144]	9.37
TGTTTGTAATTATGTATGCACTTTTTTGTATGTGTG [GTGCAC_site9668]	9.58
TCTTGTATATGTTAAAGTACACAACAATATATATAT [XGTACX_site6814]	9.21
TCCCACTGTTATATTGAAAAAAAAAAAAAAAAAAAA [TGCATGCA_negctrl_site288]	8.61
TAATGAGCGCTTGTAGTGCATTATATTCAAAAATAT	8.88
ATATTCTTGTTTAATACACACTGTAGTATTATATAT [CACACA_site4400]	9.62
AGAAAAAAACAACATGCACACGCACCCACAAAAAAA [CACACA_site7908]	9.71
